Reference: the supplement of paper PMC9334596
Where “and” joins values, the source holds several entries; their conditions need not be identical. Identical values can stand only once. Whole data set: some 5,300 compounds, median “PER2::LUC luminescence relative to vehicle control” near 0.96, cut for the highest 2% near 1.3. The list shows a part of the results.

Tested on: mPer2Luc MEF
Assay: PER2::LUC luminescence relative to vehicle control (fold of vehicle); higher = higher PER2::LUC reporter signal
Conditions: 10 µM
Procedure, shortened: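 Each value gives PER2::LUC luminescence as fold of vehicle control, measured with the ONE-Glo luciferase assay system in mouse embryonic fibroblasts carrying the mPer2Luc reporter. Cells grown in DMEM with 10% FBS at 37 °C and 5% CO2 were seeded at ~3000 per well in 384-well plates. Library compounds were added at 10 μM 48 h later, and readings were taken 24 h and 30 h after treatment.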

| SMILES | PER2::LUC luminescence (time after treatment 24 h) | PER2::LUC luminescence (time after treatment 30 h) |
| --- | --- | --- |
| COc1ccccc1N1CCN(CCN2C(=O)c3ccccc3C(C)(C)C2=O)CC1 | 0.982 | 0.92 |
| Nc1nc2[nH]cnc2c(=S)[nH]1 | 0.514 | 0.604 |
| CC(=O)C1C(=O)C=C(C)OC1=O (centres undefined) | 0.798 | 1.04 |
| Cc1[nH]c(/C=C2\C(=O)Nc3ccc(F)cc32)c(C)c1C(=O)NC[C@H](O)CN1CCOCC1 | 0.666 | 0.715 |
| CC[N+](CC)(CC)CCOc1ccc(/C=C/c2ccccc2)cc1 | 0.833 | 0.89 |
| Cc1ccccc1C(=O)Nc1ccc(C(=O)N2CCCC(O)c3cc(Cl)ccc32)c(C)c1 (centres undefined) | 1.15 and 1 | 1.23 and 0.776 |
| CC(Oc1ccc(Oc2cnc3ccc(Cl)cc3n2)cc1)C(=O)O (centres undefined) | 1.14 | 1.05 |
| CC1=CC(=O)C(C(C)C)=C/C1=N/OC(=O)c1ccccc1C | 1.11 | 0.994 |
| CN(C)C(=O)C(CCN1CCC(O)(c2ccc(Cl)cc2)CC1)(c1ccccc1)c1ccccc1 | 0.489 | 0.694 |
| COc1cc(C[C@@H](CO)[C@H](CO)Cc2ccc(O)c(OC)c2)ccc1O | 0.941 | 0.955 |
| CC(C)c1cc2c(cc1S(=O)(=O)O)[C@@]1(C)CCC[C@@](C)(C(=O)O)[C@@H]1CC2 | 1.03 | 1 |
| C=CCc1cccc(/C=N/NC(=O)CN2CCN(Cc3ccccc3)CC2)c1O | 0.453 | 0.464 |
| Cc1cccc(C)c1NC(=O)C(C)N (centres undefined) | 0.995 and 0.922 | 1.03 and 0.962 |
| O=C(O)C1CCCNC1 (centres undefined) | 1.07 | 1 |
| CO/N=C(\C(=O)N[C@@H]1C(=O)N2C(C(=O)O)=C(CSc3nnnn3C)CS[C@H]12)c1csc(N)n1 | 1.14 | 1.25 |
| CC(C(=O)O)c1ccc2c(c1)[nH]c1ccc(Cl)cc12 (centres undefined) | 1.05 | 1.01 |
| O=C(Nc1cc(Oc2cc(F)c(NC(=O)C3(C(=O)Nc4ccc(F)cc4)CC3)cc2F)ccn1)C1CC1 | 0.722 | 0.723 |
| O=C(Nc1cccc(C(F)(F)F)c1)Nc1cc(S(=O)(=O)NC2CC2)ccc1-c1ccsc1 | 0.889 | 0.805 |
| O=C1c2c(O)cccc2C([C@@H]2O[C@H](CO)[C@@H](O)[C@H](O)[C@H]2O)c2cc(CO)cc(O)c21 (some centres undefined) | 0.894 | 1.05 |
| C[C@H]1O[C@@H](O[C@H]2[C@@H](O)C[C@H](O[C@H]3[C@@H](O)C[C@H](O[C@H]4CC[C@@]5(C)[C@H](CC[C@@H]6[C@@H]5C[C@@H](O)[C@]5(C)[C@@H](C7=CC(=O)OC7)CC[C@]65O)C4)O[C@@H]3C)O[C@@H]2C)C[C@H](O)[C@@H]1O | 1.04 | 0.884 |
| CN1CCN(C2=Nc3cc(F)ccc3Cc3ccccc32)CC1 | 0.906 | 0.883 |
| O=C(O)CCC/C=C\C/C=C\C/C=C\C/C=C\CCCCCO | 0.987 | 0.936 |
